Experimental data as given in article doi:10.1101/2024.08.22.609182 (bioRxiv, 2024).

Assays:
SEC = biological target: the molecule itself; test: SEC
[1] = biological target: adenylate kinase 2 (AK2), recombinant human (human, UniProt P54819); test: SEC

B1: AIFM1 W196A (Cβ-clasp mutant, constitutive C-loop release variant) (domain or fragment)
chain: not shown
**Q.** For B1, which “stoichiometry N” value (SEC) is on record?
**A.** 2

**Q.** Does B1 bind [1]?
**A.** binds
